# Laboratory results published in the supplement of paper PMC8728848.
# The list shows a part of the results.
# Tests used:
# Experiment in all cases: glycan array binding signal (z-score within array); higher = stronger binding
# Conditions in all cases: glycan notation: IUPAC condensed, linker removed
# [1] = biological target: Neu5Ac(a2-3)Gal(b1-4)GlcNAc(b1-3)[Neu5Ac(a2-3)Gal(b1-4)GlcNAc(b1-6)]GalNAc
# Outline: (§1)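 The binding signal is a Z-score computed within each array and averaged over linkers. Arrays of the same protein sequence at different concentrations or buffers were also averaged together. Data originate from 3228 arrays in the Consortium for Functional Glycomics database, kept only where the protein sequence was available.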
# [2] = biological target: Neu5Ac(a2-3)Gal(b1-4)GlcNAc(b1-6)GalNAc
# Outline: as §1
# [3] = biological target: Neu5Ac(a2-3)Gal(b1-4)GlcNAc(b1-6)[Gal(b1-3)]GalNAc
# Outline: as §1
# [4] = biological target: Neu5Ac(a2-3)Gal(b1-4)GlcNAc(b1-6)[Neu5Ac(a2-3)Gal(b1-3)]GalNAc
# Outline: as §1
# [5] = biological target: Neu5Ac(a2-3)Gal(b1-4)GlcNAc6S
# Outline: as §1
# [6] = biological target: Neu5Ac(a2-3)Gal(b1-4)[Fuc(a1-3)]GlcNAc
# Outline: as §1
# [7] = biological target: Neu5Ac(a2-3)Gal(b1-4)[Fuc(a1-3)]GlcNAc(b1-2)Man
# Outline: as §1
# [8] = biological target: Neu5Ac(a2-3)Gal(b1-4)[Fuc(a1-3)]GlcNAc(b1-3)Gal
# Outline: as §1
# [9] = biological target: Neu5Ac(a2-3)Gal(b1-4)[Fuc(a1-3)]GlcNAc(b1-3)Gal(b1-4)GlcNAc
# Outline: as §1
# [10] = biological target: Neu5Ac(a2-3)Gal(b1-4)[Fuc(a1-3)]GlcNAc(b1-3)Gal(b1-4)[Fuc(a1-3)]GlcNAc(b1-3)Gal(b1-4)[Fuc(a1-3)]GlcNAc
# Outline: as §1
# [11] = biological target: Neu5Ac(a2-3)Gal(b1-4)[Fuc(a1-3)]GlcNAc(b1-3)GalNAc
# Outline: as §1
# [12] = biological target: Neu5Ac(a2-3)Gal(b1-4)[Fuc(a1-3)]GlcNAc(b1-6)[Gal(b1-3)]GalNAc
# Outline: as §1
# [13] = biological target: Neu5Ac(a2-3)Gal(b1-4)[Fuc(a1-3)]GlcNAc(b1-6)[Neu5Ac(a2-3)Gal(b1-3)]GalNAc
# Outline: as §1
# [14] = biological target: Neu5Ac(a2-3)Gal(b1-4)[Fuc(a1-3)]GlcNAc6S
# Outline: as §1
# [15] = biological target: Neu5Ac(a2-3)Gal6S(b1-4)GlcNAc
# Outline: as §1
# [16] = biological target: Neu5Ac(a2-3)Gal6S(b1-4)[Fuc(a1-3)]GlcNAc
# Outline: as §1
# Neu5Ac(a2-3)GalNAc = biological target: Neu5Ac(a2-3)GalNAc
# Outline: as §1
# [17] = biological target: Neu5Ac(a2-3)GalNAc(b1-4)GlcNAc
# Outline: as §1
# [18] = biological target: Neu5Ac(a2-3)[GalNAc(b1-4)]Gal(b1-4)Glc
# Outline: as §1
# [19] = biological target: Neu5Ac(a2-3)[GalNAc(b1-4)]Gal(b1-4)GlcNAc
# Outline: as §1
# [20] = biological target: Neu5Ac(a2-3)[GalNAc(b1-4)]Gal(b1-4)GlcNAc(b1-3)GalNAc
# Outline: as §1
# [21] = biological target: Neu5Ac(a2-3)[Neu5Ac(a2-6)]GalNAc
# Outline: as §1
# Neu5Ac(a2-6)Gal = biological target: Neu5Ac(a2-6)Gal
# Outline: as §1
# [22] = biological target: Neu5Ac(a2-6)Gal(b1-3)GlcNAc(b1-3)[Gal(b1-4)GlcNAc(b1-6)]Gal(b1-4)Glc
# Outline: as §1
# Neu5Ac(a2-6)Gal(b1-4)Glc = biological target: Neu5Ac(a2-6)Gal(b1-4)Glc
# Outline: as §1
# [23] = biological target: Neu5Ac(a2-6)Gal(b1-4)GlcNAc
# Outline: as §1
# [24] = biological target: Neu5Ac(a2-6)Gal(b1-4)GlcNAc(b1-2)Man
# Outline: as §1
# [25] = biological target: Neu5Ac(a2-6)Gal(b1-4)GlcNAc(b1-2)Man(a1-3)Man(b1-4)GlcNAc(b1-4)GlcNAc
# Outline: as §1
# [26] = biological target: Neu5Ac(a2-6)Gal(b1-4)GlcNAc(b1-2)Man(a1-3)[Gal(b1-4)GlcNAc(b1-2)Man(a1-6)]Man(b1-4)GlcNAc(b1-4)GlcNAc
# Outline: as §1
# [27] = biological target: Neu5Ac(a2-6)Gal(b1-4)GlcNAc(b1-2)Man(a1-3)[GlcNAc(b1-2)Man(a1-6)]Man(b1-4)GlcNAc(b1-4)GlcNAc
# Outline: as §1
# [28] = biological target: Neu5Ac(a2-6)Gal(b1-4)GlcNAc(b1-2)Man(a1-3)[GlcNAc(b1-2)Man(b1-4)GlcNAc(b1-2)Man(a1-6)]Man(b1-4)GlcNAc(b1-4)GlcNAc
# Outline: as §1
# [29] = biological target: Neu5Ac(a2-6)Gal(b1-4)GlcNAc(b1-2)Man(a1-3)[GlcNAc(b1-4)][Neu5Ac(a2-6)Gal(b1-4)GlcNAc(b1-2)Man(a1-6)]Man(b1-4)GlcNAc(b1-4)GlcNAc
# Outline: as §1
# [30] = biological target: Neu5Ac(a2-6)Gal(b1-4)GlcNAc(b1-2)Man(a1-3)[Man(a1-6)]Man(b1-4)GlcNAc(b1-4)GlcNAc
# Outline: as §1
# [31] = biological target: Neu5Ac(a2-6)Gal(b1-4)GlcNAc(b1-2)Man(a1-3)[Neu5Ac(a2-3)Gal(b1-4)GlcNAc(b1-2)Man(a1-6)]Man(b1-4)GlcNAc(b1-4)GlcNAc
# Outline: as §1
# [32] = biological target: Neu5Ac(a2-6)Gal(b1-4)GlcNAc(b1-2)Man(a1-3)[Neu5Ac(a2-6)Gal(b1-4)GlcNAc(b1-2)Man(a1-6)]Man(b1-4)GlcNAc(b1-4)GlcNAc
# Outline: as §1
# [33] = biological target: Neu5Ac(a2-6)Gal(b1-4)GlcNAc(b1-2)Man(a1-3)[Neu5Ac(a2-6)Gal(b1-4)GlcNAc(b1-2)Man(a1-6)]Man(b1-4)GlcNAc(b1-4)[Fuc(a1-6)]GlcNAc
# Outline: as §1
# [34] = biological target: Neu5Ac(a2-6)Gal(b1-4)GlcNAc(b1-2)Man(a1-6)Man(b1-4)GlcNAc(b1-4)GlcNAc
# Outline: as §1
binder,measurement,setting,value
"Gal 9 (Homo sapiens), O00182 (protein) MAFSGSQAPYLSPAVPFSGTIQGGLQDGLQITVNGTVLSSSGTRFAVNFQTGFSGNDIAFHFNPRFEDGGYVVCNTRQNGSWGPEERKTHMPFQKGMPFDLCFLVQSSDFKVMVNGILFVQYFHRVPFHRVDTISVNGSVQLSYISFQNPRTVPVQPAFSTVPFSQPVCFPPRPRGRRQKPPGVWPANPAPITQTVIHTVQSAPGQMFSTPAIPPMMYPHPAYPMPFITTILGGLYPSKSILLSGTVLPSAQRFHINLCSGNHIAFHLNPRFDENAVVRNTQIDNSWGSEERSLPRKMPFVRGQSFSVWILCEAHCLKVAVDGQHLFEYYHRLRNLPTINRLEVGGDIQLTHVQT",glycan array binding signal (z-score),[1],-0.32
same,glycan array binding signal (z-score),[2],-0.311
same,glycan array binding signal (z-score),[3],-0.331
same,glycan array binding signal (z-score),[4],-0.336
same,glycan array binding signal (z-score),[5],-0.093
same,glycan array binding signal (z-score),[6],-0.324
same,glycan array binding signal (z-score),[7],-0.281
same,glycan array binding signal (z-score),[8],-0.301
same,glycan array binding signal (z-score),[9],-0.3
same,glycan array binding signal (z-score),[10],-0.324
same,glycan array binding signal (z-score),[11],-0.239
same,glycan array binding signal (z-score),[12],-0.282
same,glycan array binding signal (z-score),[13],-0.299
same,glycan array binding signal (z-score),[14],-0.31
same,glycan array binding signal (z-score),[15],-0.321
same,glycan array binding signal (z-score),[16],-0.316
same,glycan array binding signal (z-score),Neu5Ac(a2-3)GalNAc,-0.322
same,glycan array binding signal (z-score),[17],-0.323
same,glycan array binding signal (z-score),[18],-0.302
same,glycan array binding signal (z-score),[19],-0.307
same,glycan array binding signal (z-score),[20],-0.293
same,glycan array binding signal (z-score),[21],-0.307
same,glycan array binding signal (z-score),Neu5Ac(a2-6)Gal,-0.312
same,glycan array binding signal (z-score),[22],-0.198
same,glycan array binding signal (z-score),Neu5Ac(a2-6)Gal(b1-4)Glc,-0.318
same,glycan array binding signal (z-score),[23],-0.319
same,glycan array binding signal (z-score),[24],-0.291
same,glycan array binding signal (z-score),[25],-0.314
same,glycan array binding signal (z-score),[26],0.042
same,glycan array binding signal (z-score),[27],-0.289
same,glycan array binding signal (z-score),[28],0.913
same,glycan array binding signal (z-score),[29],-0.306
same,glycan array binding signal (z-score),[30],-0.315
same,glycan array binding signal (z-score),[31],-0.259
same,glycan array binding signal (z-score),[32],-0.286
same,glycan array binding signal (z-score),[33],-0.278
same,glycan array binding signal (z-score),[34],-0.318
